# Measurements taken from the supplement of paper PMC8728848.
# The list shows a part of the results.
# Experiments:
# Assay in all cases: glycan array binding signal (z-score within array); higher = stronger binding
# Conditions in all cases: glycan notation: IUPAC condensed, linker removed
# Fuc(a1-2)Gal = molecular target: Fuc(a1-2)Gal
# Summary of the method: (§1)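 Arrays were curated from the Consortium for Functional Glycomics database, 3228 in total, and kept only where the protein sequence was available. Binding is expressed as a within-array Z-score. This score was averaged across arrays of the same protein sequence at different concentrations or buffers and across linkers, and negative values can be read as non-binding.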
# Fuc(a1-2)Gal(b1-3)GalNAc = molecular target: Fuc(a1-2)Gal(b1-3)GalNAc
# Summary of the method: as §1
# [1] = molecular target: Fuc(a1-2)Gal(b1-3)GalNAc(a1-3)[Fuc(a1-2)]Gal(b1-4)Glc
# Summary of the method: as §1
# [2] = molecular target: Fuc(a1-2)Gal(b1-3)GalNAc(a1-3)[Fuc(a1-2)]Gal(b1-4)GlcNAc
# Summary of the method: as §1
# [3] = molecular target: Fuc(a1-2)Gal(b1-3)GalNAc(b1-3)Gal
# Summary of the method: as §1
# [4] = molecular target: Fuc(a1-2)Gal(b1-3)GalNAc(b1-3)Gal(a1-4)Gal(b1-4)Glc
# Summary of the method: as §1
# [5] = molecular target: Fuc(a1-2)Gal(b1-3)GalNAc(b1-4)[Neu5Ac(a2-3)]Gal(b1-4)Glc
# Summary of the method: as §1
# Fuc(a1-2)Gal(b1-3)GlcNAc = molecular target: Fuc(a1-2)Gal(b1-3)GlcNAc
# Summary of the method: as §1
# [6] = molecular target: Fuc(a1-2)Gal(b1-3)GlcNAc(b1-2)Man(a1-3)[Fuc(a1-2)Gal(b1-3)GlcNAc(b1-2)Man(a1-6)]Man(b1-4)GlcNAc(b1-4)GlcNAc
# Summary of the method: as §1
# [7] = molecular target: Fuc(a1-2)Gal(b1-3)GlcNAc(b1-2)Man(a1-3)[Fuc(a1-2)Gal(b1-3)GlcNAc(b1-2)Man(a1-6)]Man(b1-4)GlcNAc(b1-4)[Fuc(a1-6)]GlcNAc
# Summary of the method: as §1
# [8] = molecular target: Fuc(a1-2)Gal(b1-3)GlcNAc(b1-3)Gal(b1-4)Glc
# Summary of the method: as §1
# [9] = molecular target: Fuc(a1-2)Gal(b1-3)GlcNAc(b1-3)GalNAc
# Summary of the method: as §1
# [10] = molecular target: Fuc(a1-2)Gal(b1-3)GlcNAc(b1-3)[Fuc(a1-2)Gal(b1-3)GlcNAc(b1-6)]GalNAc
# Summary of the method: as §1
# [11] = molecular target: Fuc(a1-2)Gal(b1-3)GlcNAc(b1-3)[Gal(b1-4)GlcNAc(b1-6)]Gal(b1-4)Glc
# Summary of the method: as §1
# [12] = molecular target: Fuc(a1-2)Gal(b1-3)GlcNAc(b1-3)[Neu5Ac(a2-6)Gal(b1-4)GlcNAc(b1-6)]Gal(b1-4)Glc
# Summary of the method: as §1
# [13] = molecular target: Fuc(a1-2)Gal(b1-3)GlcNAc6S
# Summary of the method: as §1
# [14] = molecular target: Fuc(a1-2)Gal(b1-3)[Fuc(a1-4)]GlcNAc
# Summary of the method: as §1
# [15] = molecular target: Fuc(a1-2)Gal(b1-3)[Fuc(a1-4)]GlcNAc(b1-2)Man(a1-3)[Fuc(a1-2)Gal(b1-3)[Fuc(a1-4)]GlcNAc(b1-2)Man(a1-3)]Man(b1-4)GlcNAc(b1-4)GlcNAc
# Summary of the method: as §1
# [16] = molecular target: Fuc(a1-2)Gal(b1-3)[Fuc(a1-4)]GlcNAc(b1-2)Man(a1-3)[Fuc(a1-2)Gal(b1-3)[Fuc(a1-4)]GlcNAc(b1-2)Man(a1-6)]Man(b1-4)GlcNAc(b1-4)[Fuc(a1-6)]GlcNAc(b1-4)[Fuc(a1-6)]GlcNAc
# Summary of the method: as §1
# [17] = molecular target: Fuc(a1-2)Gal(b1-3)[Fuc(a1-4)]GlcNAc(b1-3)[Fuc(a1-3)[Gal(b1-4)]GlcNAc(b1-6)]Gal(b1-4)Glc
# Summary of the method: as §1
# [18] = molecular target: Fuc(a1-2)Gal(b1-3)[Fuc(a1-4)]GlcNAc(b1-3)[Gal(b1-4)GlcNAc(b1-6)]Gal(b1-4)Glc
# Summary of the method: as §1
# [19] = molecular target: Fuc(a1-2)Gal(b1-4)Fuc(a1-3)]GlcNAc(b1-2)Man(a1-3)[Fuc(a1-2)Gal(b1-4)[Fuc(a1-3)]GlcNAc(b1-2)Man(a1-6)]Man(b1-4)GlcNAc(b1-4)GlcNAc
# Summary of the method: as §1
# Fuc(a1-2)Gal(b1-4)Glc = molecular target: Fuc(a1-2)Gal(b1-4)Glc
# Summary of the method: as §1
# Fuc(a1-2)Gal(b1-4)Glc6S = molecular target: Fuc(a1-2)Gal(b1-4)Glc6S
# Summary of the method: as §1
# Fuc(a1-2)Gal(b1-4)GlcNAc = molecular target: Fuc(a1-2)Gal(b1-4)GlcNAc
# Summary of the method: as §1
# [20] = molecular target: Fuc(a1-2)Gal(b1-4)GlcNAc(b1-2)Man
# Summary of the method: as §1
# [21] = molecular target: Fuc(a1-2)Gal(b1-4)GlcNAc(b1-2)Man(a1-3)[Fuc(a1-2)Gal(b1-4)GlcNAc(b1-2)Man(a1-6)]Man(b1-4)GlcNAc(b1-4)GlcNAc
# Summary of the method: as §1
# [22] = molecular target: Fuc(a1-2)Gal(b1-4)GlcNAc(b1-2)Man(a1-3)[Fuc(a1-2)Gal(b1-4)GlcNAc(b1-2)Man(a1-6)]Man(b1-4)GlcNAc(b1-4)[Fuc(a1-6)]GlcNAc
# Summary of the method: as §1
# [23] = molecular target: Fuc(a1-2)Gal(b1-4)GlcNAc(b1-2)[Fuc(a1-2)Gal(b1-4)GlcNAc(b1-4)]Man(a1-3)[Fuc(a1-2)Gal(b1-4)GlcNAc(b1-2)Man(a1-6)]Man(b1-4)GlcNAc(b1-4)GlcNAc
# Summary of the method: as §1
# [24] = molecular target: Fuc(a1-2)Gal(b1-4)GlcNAc(b1-3)Gal(b1-4)GlcNAc
# Summary of the method: as §1
binder,measurement,setting,value
DC-ASGPR S+GEE (Homo sapiens) (protein) MTRTYENFQYLENKVKVQGFKNGPLPLQSLLQRLRSGPCHLLLSLGLGLLLLVIICVVGFQNSKFQRDLVTLRTDFSNFTSNTVAEIQALTSQGSSLEETIASLKAEVEGFKQERQAVHSEMLLRVQQLVQDLKKLTCQVATINNNGEEASTEGTCCPVNWVEHQDSCYWFSHSGMSWAEAEKYCQLKNAHLVVINSREEQNFVQKYLGSAYTWMGLSDPEGAWKWVDGTDYATGFQNWKPGQPDDWQGHGLGGGEDCAHFHPDGRWNDDVCQRPYHWVCEAGLGQTSQESH,glycan array binding signal (z-score),Fuc(a1-2)Gal,-0.317
same,glycan array binding signal (z-score),Fuc(a1-2)Gal(b1-3)GalNAc,-0.328
same,glycan array binding signal (z-score),[1],-0.267
same,glycan array binding signal (z-score),[2],-0.364
same,glycan array binding signal (z-score),[3],-0.299
same,glycan array binding signal (z-score),[4],0.011
same,glycan array binding signal (z-score),[5],0.149
same,glycan array binding signal (z-score),Fuc(a1-2)Gal(b1-3)GlcNAc,-0.292
same,glycan array binding signal (z-score),[6],-0.426
same,glycan array binding signal (z-score),[7],-0.267
same,glycan array binding signal (z-score),[8],-0.316
same,glycan array binding signal (z-score),[9],-0.308
same,glycan array binding signal (z-score),[10],-0.316
same,glycan array binding signal (z-score),[11],-0.097
same,glycan array binding signal (z-score),[12],-0.316
same,glycan array binding signal (z-score),[13],0.152
same,glycan array binding signal (z-score),[14],-0.32
same,glycan array binding signal (z-score),[15],-0.328
same,glycan array binding signal (z-score),[16],-0.232
same,glycan array binding signal (z-score),[17],-0.292
same,glycan array binding signal (z-score),[18],-0.313
same,glycan array binding signal (z-score),[19],-0.307
same,glycan array binding signal (z-score),Fuc(a1-2)Gal(b1-4)Glc,0.083
same,glycan array binding signal (z-score),Fuc(a1-2)Gal(b1-4)Glc6S,-0.12
same,glycan array binding signal (z-score),Fuc(a1-2)Gal(b1-4)GlcNAc,-0.064
same,glycan array binding signal (z-score),[20],-0.316
same,glycan array binding signal (z-score),[21],-0.262
same,glycan array binding signal (z-score),[22],-0.237
same,glycan array binding signal (z-score),[23],0.078
same,glycan array binding signal (z-score),[24],0.093
